Data from the supplement of paper PMC7826260.
Some of the results follow. The data describe in vitro nicking of single-stranded DNA by Rep domains (1 h at 37 °C, 3 µM enzyme); the outer parts of the 90-letter strands are left off. Uncut reads are compared with the no-enzyme pool on a log2 scale; more negative means more cut, near 0 not cut, and no call is made. Counts are relative to all reads; where an enzyme cuts many sequences, the uncut ones exceed 0.

What follows are sequences tested on T1, Rep nickase domain of tomato golden mosaic virus (assay: uncleaved DNA left, log2 of reads against the no-enzyme library (log2 ratio); higher = less cleavage (more negative = more Rep cleavage of the k-mer); sequences stand for … in CTCGTCCG…ACCGGAGA).
T1 sequence (Rep 1-124, printed without the tag): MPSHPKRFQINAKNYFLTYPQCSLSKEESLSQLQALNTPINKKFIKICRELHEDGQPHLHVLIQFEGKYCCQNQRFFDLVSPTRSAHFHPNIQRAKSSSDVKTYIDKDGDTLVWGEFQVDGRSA
Description: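 A pool of 90-nt single-stranded DNAs with seven random bases just before the constant AC of the nick site (name = the seven bases) was cut by 3 µM recombinant His6-SUMO-tagged Rep nickase domain (300 nM DNA, 50 mM HEPES pH 8.0, 50 mM NaCl, 1 mM MnCl2, 1 h, 37 °C, three replicates). Uncut DNA was amplified and sequenced.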
In the case of CTCAACT, the “uncleaved DNA left (log2)” value is reported as -0.00737.
TGGGGTG was tested, and the “uncleaved DNA left (log2)” value was 0.000217.
GCGCGGT was tested, and the “uncleaved DNA left (log2)” value was 0.0452.
TGCACGA was tested, and the “uncleaved DNA left (log2)” value was 0.00481.
With GATCACA the “uncleaved DNA left (log2)” value was -0.172.
CGTGAAG was tested, and the “uncleaved DNA left (log2)” value was -0.0991.
With CGACTAT the “uncleaved DNA left (log2)” value was 0.0151.
In the case of ACTACGC, the “uncleaved DNA left (log2)” value is reported as -0.15.
In the case of GAGAGGA, the “uncleaved DNA left (log2)” value is reported as 0.13.
GGACTAG was tested, and the “uncleaved DNA left (log2)” value was 0.0102.
CTTGGCC was tested, and the “uncleaved DNA left (log2)” value was -0.0983.
With TAGGTGG the “uncleaved DNA left (log2)” value was 0.00978.
AAAGCGC was tested, and the “uncleaved DNA left (log2)” value was -0.0651.
With TACAGCA the “uncleaved DNA left (log2)” value was -0.0368.
TAGCAAG was tested, and the “uncleaved DNA left (log2)” value was -0.0198.
For CGAGCAG, the “uncleaved DNA left (log2)” value was 0.00579.
In the case of AACCTAG, the “uncleaved DNA left (log2)” value is reported as 0.132.
CGGAATC was tested, and the “uncleaved DNA left (log2)” value was -0.219.
With AGCATTA the “uncleaved DNA left (log2)” value was 0.0209.
In the case of CGACATC, the “uncleaved DNA left (log2)” value is reported as 0.085.
GGTCACC was tested, and the “uncleaved DNA left (log2)” value was -0.0455.
With TTAGCCA the “uncleaved DNA left (log2)” value was -0.0501.
For CAGCGTG, the “uncleaved DNA left (log2)” value was 0.0927.
ACGAAAT was tested, and the “uncleaved DNA left (log2)” value was 0.118.
With AGGAACA the “uncleaved DNA left (log2)” value was -0.00353.
For TCGTCTC, the “uncleaved DNA left (log2)” value was -0.256.
For ACATTTC, the “uncleaved DNA left (log2)” value was -0.0299.
In the case of ATTGCTA, the “uncleaved DNA left (log2)” value is reported as 0.00235.
In the case of CCTATGC, the “uncleaved DNA left (log2)” value is reported as -0.0738.
With TAGGGGG the “uncleaved DNA left (log2)” value was 0.192.
For GAGGTTC, the “uncleaved DNA left (log2)” value was 0.0724.
CACTATG was tested, and the “uncleaved DNA left (log2)” value was 0.147.
TCTGGAC was tested, and the “uncleaved DNA left (log2)” value was -0.00762.
With GAGCGGG the “uncleaved DNA left (log2)” value was 0.141.
CGGCAGC was tested, and the “uncleaved DNA left (log2)” value was 0.00707.
With TGGTTCC the “uncleaved DNA left (log2)” value was -0.056.
With AGCTCTT the “uncleaved DNA left (log2)” value was 0.000951.
With CCAATGG the “uncleaved DNA left (log2)” value was 0.069.
In the case of CACTCTT, the “uncleaved DNA left (log2)” value is reported as -0.364.
For GGCCATT, the “uncleaved DNA left (log2)” value was -0.106.
